# In the supplement of paper PMC11417369:
# Some of the results follow.
# Test system: PfSIP2 AP2 domain 1 (GST-tagged)
# Experiment: gcPBM binding intensity (ln(normalized median fluorescence intensity)); higher = stronger DNA binding
# Summary of the method: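 DNA-binding domains from P. falciparum, fused to GST and produced in E. coli, were put on an Agilent 4 × 180k double-stranded probe array for 1 h in 1× PBS holding 1% milk, 0.2 mg/ml BSA, 0.5% salmon testes DNA and 0.03% Triton X-100. Probes were primer-extended, 36 bp long and drawn from intergenic genomic regions, with negative controls included. After Alexa488 anti-GST antibody detection and a 488 nm scan, binding intensity was set as the highest Masliner-normalised natural-log median intensity across replicate spots of either probe orientation.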
row,Sequence,gcPBM binding intensity (ln)
1,TACGAATTAAAAAAGAGTACAAATAAAATATCTACA [XGTACX_site7412],6.73
2,CATACATACATATATACACACATATATAATAATATA [CACACA_site2678],7.32
3,AATTAGCTCAAAGGTTGTACAAATATATTTTAATGG [XGTACX_site2352],6.88
4,TTTTAAACACCAATCAAAAAAATATAAATATAAATA [TGCATGCA_negctrl_site552],7.08
5,AAAAAAAATAATTTGCGTACATAAAAATTTATAGGA [XGTACX_site3016],7.44
6,AAATTTTTTTTTGTCATATGATGTTTGAACCCAAAT [CACACA_negctrl_site1659],7.08
7,TCCGTATATTTATACGCATGCATTATGAACATTGTT [TGCATGCA_site613],6.96
8,TTACATTGTAAAAAGTGTACATATAATTTAATTAAT [XGTACX_site1834],7.13
9,ATGTAGACTGAAACCACACACACATATATATATATA [CACACA_site606],9.33
10,GGATTACAAATAGGTTGTACGTTTTTTTTTTTTTCT [XGTACX_site3605],7.27
11,AATTTATTTTTTTAATGTACATATGGTATAAATATA [XGTACX_site8012],7.06
12,TGTTGATTTCTCAAATGTACTTTACTTTTCTTCAGA [XGTACX_site7916],6.76
13,TTTTTTTTTTTTAATTGTACATTTTATATAAACTTT [XGTACX_site6806],6.99
14,AATATATATATATGTACACACTCCAATACATATACA [CACACA_site2682],7.33
15,TTAAGAATATCTTAGAGTACATTTTATCATCTTAAA [XGTACX_site8298],6.67
16,TCTTTTTAAATTACTATAATACATTCATAAATTATA [GTGCAC_negctrl_site448],6.99
17,TTTTTTTATTTTATAAAGCAAAAATAAGAATGAAAT [XGTACX_negctrl_site270],7.28
18,AGGGAATAAGTAAGGTGTACATAATTATGTTACTTT [XGTACX_site6152],7.15
19,TATATGTATGTATGTACACACAAAAAATGGAATATA [CACACA_site3717],7.17
20,ATATATATTTATATTTGTACGAATTAAAATTTTTTA [XGTACX_site5200],7.11
21,ATTTAAAACAAAAGTAGTACGTCTAATAAATTCAAC [XGTACX_site4344],6.93
22,TTATCAATAAAATGCACACACTGTAATATTATTAAA [CACACA_site6055],7.18

row,Sequence,gcPBM binding intensity (ln)
1,ATAGCTTTTATTTAAAGTACAAAAAGGATGTTGAAA [XGTACX_site3810],6.95
2,AGACAAAATGTTTGAAGTACTTTTTATCAAATTAAA [XGTACX_site8885],6.86
3,AAAAAAAAAAAACACACACACACACCCATACATACA [CACACA_site707],7.14
4,TGATTTTTTCATATTCTACACACGTGAACAAATGTG [CACACA_site8987],6.84
5,TTAATTATTATATAAGTGCAATAATAAAAAGTTGTA [GTGCAC_site9552],7.68
6,TTGTTAATAAATAAATAAATAAATATATTTATATAT [GTGCAC_negctrl_site271],6.88
7,TACAAAAAAAAAAAATAGATAAAATAATAATCAAAT [TGCATGCA_negctrl_site524],6.69
8,ATATATTGAACATATTGTACATTTTGTTAATATTTT [XGTACX_site7622],6.91
9,TCTCAAGTTGTTAAAAAATAAAAACAATAAATCTAA [CACACA_negctrl_site165],6.75
10,AACAATTGGAATAACGCATGCATTTATAATATAGAA [TGCATGCA_site298],7.01
11,CAATTTTTTAAATGCACACAAAAGGAATAAATAAAT [CACACA_site544],8.6
12,AAGAAGAAATGCTTTGCATGCAAATTTTATGCCAAC [TGCATGCA_site721],6.64
13,TGAATATTCCTATGCACACAAATTAAAATACATAAT [CACACA_site4403],7.92
14,ACAAATTTATACTTAAAACACACGTAATCATTTATA [CACACA_site1636],7.12
15,TAAAATAATTTATGCATACACACATATATATATATA [CACACA_site4021],9.23
16,TACAATTTTTTAAATGCACACAAAAGGAATAAATAA [CACACA_site8075],9.32
17,TAATATATGTATTGCACACCTATAACCATTATTTCT [CACACA_site1498],7.06
18,AAAAGCAAGTTCCAGGGTACATATATATGAAAAAAC [XGTACX_site2408],7.1
19,AAAAATATGTCCATGAAAAGGATAGGCAGGTAATCA [XGTACX_negctrl_site93],6.78
20,AAATATATTTTACATTGTACATGAATAAACTATAAA [XGTACX_site2080],7.05
21,AAAAATTAAATAAATTTACACACTAATAATTACATA [CACACA_site8260],6.53
22,TCTTGTTTTCAAATATGTACATAGAATAGACATTTT [XGTACX_site684],6.98

row,Sequence,gcPBM binding intensity (ln)
1,AAATATATAAAATATACACACAGTAATATATATATA [CACACA_site1385],8.61
2,AAGTTTTATTTAAATTGTACTAAAATTTTTATATTA [XGTACX_site7065],6.84
3,TATATATAAATATTCAGTACATAGTATTATTAAGTA [XGTACX_site1980],6.98
4,ATAAAATGAACAAACACACACACATATATATATATA [CACACA_site2402],9.2
5,CCTAAAAAAAAGAAATGATATACATATGTATATATA [GTGCAC_negctrl_site100],7.02
6,CATATAAATAAATACACACACACACGCCTTATAATT [CACACA_site7830],7.2
7,TATTTAAGAATATGAAGTACATATATTATTTAAAAA [XGTACX_site7897],7
8,TATATAGGTATCATTACACACATGTATACTTATTTG [CACACA_site7864],7.14
9,TTTTTCTTTCTCTATTGTACACATGGAAACACATAA [XGTACX_site4601],7.48
10,TTCATTTTAATTTCCAGTACACATATATATACATAT [XGTACX_site558],7.2
11,ATGTCATAAATGTACGCACACATACATAAACATATA [CACACA_site4530],7.33
12,ATTTATTTCTATAATACACACAAATATCTTAATTAA [CACACA_site7801],6.77
13,AATATAATACAATATTGTACATAATATAAATTAAAA [XGTACX_site4064],6.94
14,TATATGTTATATTGGACACACACAATAAACATTATG [CACACA_site8480],7.03
15,AAACATAAAGAAAAAAAAAATATATATTTATTTATT [GTGCAC_negctrl_site357],6.75
16,ATATATTAACAAAAGGTGCTTTTGGCAAAGTATAAT,8.1
17,TTATTTAAATATTGATGTACTCTCCTTATTATAATA [XGTACX_site1240],7.13
18,ATAAAAATGGTGTTAACACACACATATATATATATA [CACACA_site8089],9.45
19,GGTAATTATTTTGGTTGTACTCAAATATATAATATT [XGTACX_site291],7.4
20,GAGAAAGATATATACACACACATAAATATGTACATA [CACACA_site6975],7.03
21,TTTCCCAAGCTTATTACACACAAGTAGAATAAGCTT [CACACA_site1561],6.81
22,TATATAGGTAAAAAATGTACTTATATTGAATATATT [XGTACX_site4414],6.77

row,Sequence,gcPBM binding intensity (ln)
1,TTTACAATATTAAAATGTACATATAAAATAAATAAA [XGTACX_site8367],7.14
2,GATATCAAATATAAATGTACAAATTATATATACATA [XGTACX_site3228],6.83
3,TTCTTATTTATTTTCTTCTCCTTCCTCAAATTTTTT [GTGCAC_negctrl_site592],6.95
4,AATTTGTTAATATTTTGTACACATAATATAAAAACA [XGTACX_site2224],7.08
5,TTTACAATATAAAATACACACACACTAACATATATT [CACACA_site9231],7.1
6,TATATAAATGTTATCACACACTCACGTTTGACAAAA [CACACA_site6468],6.97
7,ATACAATAAAATAAGTTTGAATAAAATTAAATATAT [CACACA_negctrl_site877],6.77
8,TCCTTTTTTAAAAGTTGTACATTATTGTTATTTGTT [XGTACX_site4686],6.94
9,TTCCTCTTAATATGTGCACACTAAATTATAACCTAA [CACACA_site5751],9.95
10,GAAGGAAATAATAGTAGTACAAATGGTAAGAAATAT [XGTACX_site5845],7.53
11,ATTTTTTCTGTCTTAATTGGACCCACTGCAAATGGG [CACACA_negctrl_site1158],6.94
12,ATAATACAAAAAAAAAAAAAAAATAAAATAATAAAA [GTGCAC_negctrl_site722],6.92
13,AAGTAATACAACACGCACATATATATATATATATAT [GTGCAC_negctrl_site89],9.94
14,TTATAGCCTGTGAAGAGTACATTTTTATTTTTTATT [XGTACX_site4105],6.85
15,TACCTAAATAAATGGACACACACATATATATATATA [CACACA_site8407],9.63
16,TATTTTTAAATATAAAGTACTTATATTAACTACGAA [XGTACX_site1524],6.95
17,TTCATATATTTTAAAGCATGCATTCATCTTATAGTT [TGCATGCA_site800],6.94
18,TTTACGCTATAGGAGAGTACTTATAAAATCCTGTGT [XGTACX_site2364],6.96
19,TACAAAATATATATGACACACACAAAAAAAGTATAT [CACACA_site8455],7.06
20,TATTTTTCCATTGGGGGTACATGTGTTATATTTATT [XGTACX_site5914],8.61
21,AGACGAAAATAATAAAGTACTAAAAAAAAAAAAAAA [XGTACX_site927],6.77
22,ATATATATGCATATATGTACTTAAAATATAAAGGCA [XGTACX_site3256],7.29
